# According to PubChem BioAssay (NCI):
#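 Cultured in 96-well plates, cells were exposed to test compound for 48 hours across five concentrations. Abbreviation: GI50, concentration required for 50% inhibition of growth. The concentration for full growth arrest is given as TGI.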
# Tested on: NCI-H322M lung
# Assay: NCI-60 cell line screen, 48 h
SMILES,TGI [µM],GI50 [nM]
CC(=O)NC1CCC(NC(=O)OC(C)(C)C)C(NC(=O)OC(C)(C)C)C1 (centres undefined),> 100,–
Cc1cc2c(c(C#N)c1C)NC(=O)C(CC(=O)O)C2=O (centres undefined),> 100,–
CC[O-].CC[O-].O=Nc1ccc2cc([O-])ccc2c1.O=Nc1ccc2cc([O-])ccc2c1.[Ti+4],4.45,1910
CNC1NC(=O)c2ccccc2N1Cc1ccc(F)cc1 (centres undefined),> 100,–
O=C(Nc1ccc2oc(=O)c(C(=O)O)cc2c1)Oc1ccccc1,> 100,–
Cc1ccc2c(=O)[nH]sc2c1,> 100,–
CN(C)CCNC(=O)c1cc([N+](=O)[O-])ccn1,87.2,–
O=C(Nc1ccncc1)C(=O)c1cn(S(=O)(=O)c2ccccc2F)c2ccccc12,> 100,24200
COc1ccc(/C=C2\CNC/C(=C\c3ccc(OC)cc3)C2=O)cc1,> 100,–
O/N=C1\CC2(N3CCOCC3)CCC1(Cc1ccccc1)CC2,> 100,–
CCOC(=O)NNC1(SC)NC(=O)c2c(cc(Cl)oc2=O)O1 (centres undefined),23.5,–
Cn1c2c(c3ccccc31)CC(=O)N1CCCCC1C21OCCO1 (centres undefined),> 100,–
C=C1C(=O)O[C@@H]2C[C@@H](C)[C@@H]3[C@@H](OC4OC(COC(C)=O)C(O)C(O)C4O)CC(=O)[C@@]3(C)C[C@H]12 (some centres undefined),27.1,–
CC1=CC[C@H](C)C(C)(C)C1/C=C/C(C)=C/CC[C@@]1(CO)[C@H](CCCO)/C(=C(/C)C=O)CC[C@]1(C)O (some centres undefined),28.4,–
CN(C)CCCNC(=O)CNC(=O)c1cc(NC(=O)c2cc(NC(=O)c3cc(NC(=O)CCNC(=O)c4cc(NC(=O)c5cc(NC(=O)c6nccn6C)cn5C)cn4C)cn3C)cn2C)cn1C,> 100,–
CCc1ccc(CCC(=O)Nc2ncc(Cc3ccccc3)s2)o1,> 100,13700
OCCCN(CCc1ccc(Cl)c(Cl)c1)CCN1CCCC1,> 100,–
O=C(c1ccco1)N1CCN(C(=O)c2ccco2)C1=S,32.9,–
CC1(C)N=C(N)N=C(N)N1c1ccc(CCCCc2ccc(Cl)cc2Cl)cc1,16.1,–
Cc1ccc(N2C(=O)CC(=O)N(NC(=O)C(C)Oc3ccccc3C)C2=S)cc1 (centres undefined),> 100,–
COc1ccc(NC(C)=O)c(C(=O)CCNC(C)=O)c1,> 100,–
O=[N+]([O-])C(=C/C1CCCCC1)/C(=C\C1CCCCC1)[N+](=O)[O-],30.2,–
COc1cc2c(cc1OC)[C@@H](C(O)c1ccccc1)NCC2 (some centres undefined),> 100,–
CC(=O)/C=C/c1c[nH]c(=O)[nH]c1=O,347,–
O=C(O)c1ccc(NS(=O)(=O)c2cccc3cccnc23)cc1,> 100,> 100000
CC(C)(C)OC(=O)/C=C/C(=O)O/C=C/[N+](=O)[O-],> 100,–

SMILES,TGI [µM],GI50 [nM]
Clc1cc(Cl)cc(N2N=C(c3cccc(Nc4ccncc4)c3)CC2c2ccc(Br)cc2)c1 (centres undefined),2.9,1530
CCCC(=O)N[C@@H](Cc1cc(I)c(O)c(I)c1)C(=O)NCCCNCCCCNCCCNC(=O)[C@@H](N)CCCN=C(N)N,> 100,–
CNS(=O)(=O)NN(C)S(=O)(=O)c1ccc(Br)cc1,> 100,–
Cc1cc(N/N=C/c2nc(-c3ccccc3)oc2C)c2cc(Cl)ccc2n1,3.66,1760
C#CC[C@H](c1nc2cc(Cl)ccc2c(=O)n1Nc1ccccc1)N(CCCN)C(=O)c1cccc(Cl)c1F,12.8,328
O=C(c1ccc(NCN2C(=O)CCC2=O)cc1)c1ccc(NCN2C(=O)CCC2=O)cc1,> 100,–
CC1=NN(C(=O)CC(=O)Nc2cccc(Cl)c2)C(=O)C1N=Nc1ccc(S(=O)(=O)c2ccc(N=NC3C(=O)N(C(=O)CC(=O)Nc4cccc(Cl)c4)N=C3C)cc2)cc1 (centres undefined),> 100,–
CCc1oc2ccccc2c1C(=O)c1cc(Br)c(O)c(Br)c1,47.3,–
CN1CCN(Cc2ccc(NC(=O)c3[nH]ncc3Nc3ncnc4c3CCC4)cc2)CC1,10.7,1930
O=[N+]([O-])/C(C(Cl)=C(Cl)Cl)=C(/Sc1ccccc1)N1CCOCC1,33.9,–
C/C=C/OC1C(C2COC(C)(C)O2)OC2OC(C)(C)OC21 (centres undefined),> 100,–
CO/N=C1/C(n2[nH]c(=O)n(-c3ccccc3)c2=O)C2C=CC1n1c(=O)n(-c3ccccc3)c(=O)n12 (centres undefined),> 100,–
O=C1NC2(O)c3ccccc3C(=O)C2(O)N1c1ccccc1 (centres undefined),> 100,–
CCCCN(CCCC)c1ccc(N=Nc2ccc(S(=O)(=O)O)cc2)cc1,68.6,–
O=C1NC(N/N=C/C(O)C(O)C(O)C(O)CO)=N/C1=C\c1cccs1 (centres undefined),> 100,–
O=C1C(Cl)=C(N2CCOCC2)C(=O)c2ccccc21,36.3,20900
COc1ncc(C#CC(=O)c2ccccc2OC)c(OC)n1,36.4,–
NC1CCC[C@@H](O)[C@H]1O (some centres undefined),> 100,–
Cc1ccc(-c2c(C#N)c(S)n(NS(=O)(=O)c3ccccc3)c(=O)c2C#N)cc1,> 100,–
O=C(Nc1cc(Cl)ccc1O)c1cccc(NC2=C(Cl)C(=O)N(Cc3ccccc3)C2=O)c1,> 100,> 100000
Cc1cc(-c2nc3ccc(O)cc3s2)ccc1N,> 100,39600
COc1cccc2c1C(=O)c1ccc3cc(CO)cc(O)c3c1C2=O,4.62,–
CCc1nc2ccc(Cc3ccc(C(=O)NO)cc3)cc2c(=O)n1CCc1ccccc1,7.99,2130
COc1ccc(C=NC23CC4CC(CC(C4)C2)C3)cc1,> 100,–
CC1(C)OC[C@@]2([C@@H]3CC[C@@H](C3)C2(C)C)N1O,> 100,–
Cc1cc2c(cc1Cl)Sc1nnc(C)n1S2(=O)=O,55.2,–
